Measured values reported in the supplement of paper PMC12217912.
The other results are listed elsewhere or left out. The full chains were built here from the parent and the listed change. Values near 0.05 are background.

B1: TEV protease; numbered along this chain (parent)
chain: MGESLFKGPRDYNPISSSICHLTNESDGHTTSLYGIGFGPFIITNKHLFRRNNGTLVVQSLHGVFKVKDTTTLQQHLVDGRDMIIIRMPKDFPPFPQKLKFREPQREERICLVTTNFQTKSMSSMVSDTSCTFPSGDGIFWKHWIQTKDGQCGSPLVSTRDGFIVGIHSASNFTNTNNYFTSVPKNFMELLTNQEAQQWVSGWRLNADSVLWGGHKVFMVKPEEPFQPVKEATQL

Variants of: B1
Assay: raw area under fraction-flipped curve 0-4 h after induction (AUC4h, not background-subtracted), DNA-recorder readout of cleavage of the substrate (dimensionless); higher = more cleavage of the substrate by the protease variant
Conditions: temperature: 34 °C; time window: 0-4 h after rhamnose induction
Description: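 In vivo DNA recorder in E. coli TOP10(DE3) ΔrhaA at 34 °C. Each TEVp single-site mutant (parent TEVp 0) is paired with a single-site variant of the 7-mer TEVs (canonical ENLYFQ|S). The substrate sits between flexible linkers in a Bxb1-sfGFP-TEVs-SsrA fusion, so cleavage stabilises Bxb1 and speeds flipping of a recombination array, read by NGS. The value is the raw area under the fraction-flipped curve over 0-4 h after rhamnose induction (AUC4h), with ≥20 reads per time point. It is not background-subtracted; inactive controls average about 0.047.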
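Further: Bxb1 expression induced with 0.2% (w/v) L-rhamnose at OD600 near 0.5, cultures sampled hourly, flipped fraction per protease–substrate barcode pair counted by paired-end Illumina sequencing.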

Variant | area with substrate ENLYFQC | area with substrate ENLYFQD | area with substrate ENLYFQF | area with substrate ENLYFQG | area with substrate ENLYFQH | area with substrate ENLYFQI | area with substrate ENLYFQK | area with substrate ENLYFQL | area with substrate ENLYFQM | area with substrate ENLYFQQ | area with substrate ENLYFQR | area with substrate ENLYFQS | area with substrate ENLYFQT | area with substrate ENLYFQY | area with substrate ENLYFQN | area with substrate ENLYFQP | area with substrate ENLYFQV | area with substrate ENLYFQW | area with substrate ENLYFQE
I110N | 0.0436 | 0.0674 | 0.0626 | 0.0391 | 0.0625 | 0.0427 | 0.0383 | 0.0547 | 0.0303 | 0.069 | 0.0611 | 0.0569 | 0.0557 | 0.0566 | – | – | – | – | –
V113M | 0.101 | 0.0726 | 0.0995 | 0.0724 | 0.0646 | – | 0.0781 | 0.0672 | 0.0628 | – | 0.0497 | 0.0945 | 0.0667 | 0.0831 | 0.0822 | 0.0514 | 0.0671 | 0.0587 | –
T115Y | 0.119 | 0.0689 | 0.0681 | – | 0.0831 | 0.0611 | 0.0591 | 0.0485 | – | – | 0.053 | 0.0994 | – | 0.0798 | 0.0653 | – | 0.0634 | 0.0656 | –
N116P | 0.133 | 0.0449 | – | 0.0745 | 0.0549 | 0.0508 | 0.0578 | 0.0597 | 0.0825 | – | 0.0653 | 0.0979 | – | 0.0833 | 0.0823 | 0.0415 | 0.0677 | 0.0621 | –
Q118Y | 0.118 | – | – | 0.0682 | 0.0793 | – | – | – | – | – | 0.0571 | 0.102 | 0.105 | – | – | – | – | – | –
V126I | 0.0901 | 0.0706 | – | 0.0428 | – | – | – | 0.0571 | 0.0787 | – | – | 0.102 | 0.0587 | 0.0787 | 0.0579 | – | – | 0.0698 | –
S130V | 0.115 | 0.0755 | 0.0967 | – | 0.0815 | 0.06 | 0.0661 | 0.0727 | 0.0908 | – | 0.0794 | 0.1 | 0.0599 | 0.0911 | 0.0908 | 0.0544 | – | – | –
T132E | 0.0518 | 0.0428 | – | 0.0602 | 0.0503 | – | 0.0843 | 0.0445 | 0.0464 | – | 0.0469 | 0.059 | 0.0497 | 0.0204 | 0.0591 | – | – | 0.0477 | –
F133L | 0.0901 | – | 0.0589 | 0.0994 | – | 0.0599 | – | 0.0539 | 0.103 | – | 0.0652 | 0.117 | 0.0668 | – | 0.0827 | – | – | – | –
S135N | 0.0718 | – | 0.0375 | 0.0729 | 0.0647 | 0.0583 | – | 0.066 | 0.0616 | 0.066 | 0.0668 | 0.0813 | 0.0655 | 0.0513 | 0.0878 | – | 0.0692 | 0.0708 | –
G136D | 0.0839 | – | – | 0.078 | 0.0869 | 0.057 | 0.0635 | 0.0493 | 0.0836 | – | 0.0611 | 0.103 | 0.0627 | 0.0608 | 0.0648 | – | 0.0695 | 0.0543 | –
D137F | 0.0995 | – | – | 0.0974 | 0.0797 | 0.0449 | 0.0597 | 0.0525 | – | – | – | 0.0913 | 0.0745 | 0.0759 | – | 0.0241 | – | – | –
I139V | 0.101 | 0.0645 | 0.0853 | 0.113 | – | 0.0633 | 0.0608 | 0.0666 | 0.0879 | – | 0.0633 | 0.111 | 0.0494 | 0.08 | 0.139 | 0.0542 | 0.0527 | 0.0642 | –
F140L | 0.0897 | – | – | – | – | 0.0641 | 0.0549 | – | 0.0719 | 0.064 | 0.0631 | 0.0876 | 0.0582 | 0.0574 | 0.0634 | – | – | 0.0557 | –
H143G | 0.0984 | 0.0526 | – | 0.0915 | 0.101 | 0.0347 | – | – | 0.0768 | 0.0624 | 0.0504 | 0.0974 | 0.0487 | 0.0697 | 0.0658 | 0.0493 | – | 0.0588 | 0.0499
T147F | 0.0595 | – | 0.0602 | 0.0823 | – | 0.0582 | – | – | 0.0579 | – | 0.0672 | 0.0601 | 0.112 | 0.0596 | 0.0594 | 0.0193 | 0.0578 | 0.0472 | 0.0614
T147R | 0.0726 | 0.0626 | 0.053 | – | 0.0728 | 0.0333 | 0.0462 | 0.059 | 0.0469 | – | 0.0582 | 0.0662 | – | 0.06 | 0.0541 | – | 0.0448 | 0.0525 | –
Q151T | 0.0933 | 0.0668 | 0.0574 | 0.0895 | 0.0903 | 0.0708 | 0.0677 | – | 0.0786 | – | – | 0.0928 | 0.0509 | – | 0.0733 | 0.0646 | 0.0473 | 0.0499 | 0.0739
Q151Y | 0.106 | – | – | 0.0972 | – | – | 0.0676 | 0.063 | 0.0747 | 0.0676 | 0.0677 | 0.0808 | 0.0783 | 0.0588 | 0.0772 | 0.0834 | 0.0575 | – | –
V157E | 0.0503 | – | 0.056 | – | 0.0421 | 0.041 | 0.0505 | 0.0522 | – | – | – | 0.055 | 0.0511 | 0.0376 | 0.0476 | – | 0.0486 | – | –
V157W | 0.0702 | 0.0503 | 0.0539 | 0.125 | 0.0639 | 0.0543 | 0.059 | 0.0552 | 0.061 | 0.0565 | 0.0493 | 0.0647 | 0.0478 | 0.055 | 0.0635 | – | 0.0461 | 0.0502 | 0.0546
I164Q | 0.0505 | 0.0554 | 0.0469 | 0.0632 | 0.0482 | 0.0455 | 0.0384 | 0.0455 | 0.0624 | – | 0.0512 | 0.0531 | 0.0705 | 0.0522 | 0.0462 | 0.0478 | 0.0439 | 0.0299 | –
I167R | 0.063 | 0.0488 | – | 0.0484 | – | 0.0473 | 0.0405 | 0.005 | 0.0523 | – | 0.0596 | 0.0485 | 0.0429 | – | 0.0399 | – | 0.0561 | 0.0477 | –
S169D | 0.064 | 0.0634 | 0.0502 | 0.0782 | 0.0724 | 0.0653 | 0.0613 | 0.0623 | 0.0554 | 0.0602 | 0.0596 | 0.0589 | 0.0589 | – | 0.0664 | 0.0702 | – | 0.0609 | –
A170T | 0.0559 | – | – | – | – | – | – | – | – | – | – | 0.0662 | – | – | – | – | – | – | –
S171C | 0.101 | – | – | 0.0529 | 0.0647 | 0.0424 | 0.0559 | 0.0518 | – | – | – | 0.0807 | – | – | 0.0498 | – | – | 0.0456 | 0.0453
F173H | 0.107 | 0.0659 | 0.0789 | 0.0934 | – | 0.0607 | 0.0638 | 0.0539 | 0.0711 | 0.0623 | 0.0653 | 0.0883 | 0.0613 | 0.0645 | 0.0642 | 0.0827 | 0.0674 | 0.0554 | 0.0584
